Data taken from paper PMC6919601, “Identification of Plasmodium dipeptidyl aminopeptidase allosteric inhibitors by high throughput screening” (PLoS ONE, 2019).
Several values for one entry are separate records, joined by “and”; a condition that tells them apart may be missing. Equal values may be shown once. Hit rate of the full screen: of about 110,000 compounds, about 230 (0.21%) showed an effect of 50% or more. This is one part of the list.

molecular target: DPAP1 (Plasmodium falciparum, UniProt Q8IIJ9); experiment: primary screen, percent inhibition; read by cleavage of a fluorogenic dipeptide substrate; higher = more effect of the substance; parameters: species or system P. falciparum D10 trophozoite lysates; single well
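Further: 30 min substrate incubation versus DMSO and 10 µM JCP410 controls.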

DPAP1, sequence (Q8IIJ9 whole entry, looked up): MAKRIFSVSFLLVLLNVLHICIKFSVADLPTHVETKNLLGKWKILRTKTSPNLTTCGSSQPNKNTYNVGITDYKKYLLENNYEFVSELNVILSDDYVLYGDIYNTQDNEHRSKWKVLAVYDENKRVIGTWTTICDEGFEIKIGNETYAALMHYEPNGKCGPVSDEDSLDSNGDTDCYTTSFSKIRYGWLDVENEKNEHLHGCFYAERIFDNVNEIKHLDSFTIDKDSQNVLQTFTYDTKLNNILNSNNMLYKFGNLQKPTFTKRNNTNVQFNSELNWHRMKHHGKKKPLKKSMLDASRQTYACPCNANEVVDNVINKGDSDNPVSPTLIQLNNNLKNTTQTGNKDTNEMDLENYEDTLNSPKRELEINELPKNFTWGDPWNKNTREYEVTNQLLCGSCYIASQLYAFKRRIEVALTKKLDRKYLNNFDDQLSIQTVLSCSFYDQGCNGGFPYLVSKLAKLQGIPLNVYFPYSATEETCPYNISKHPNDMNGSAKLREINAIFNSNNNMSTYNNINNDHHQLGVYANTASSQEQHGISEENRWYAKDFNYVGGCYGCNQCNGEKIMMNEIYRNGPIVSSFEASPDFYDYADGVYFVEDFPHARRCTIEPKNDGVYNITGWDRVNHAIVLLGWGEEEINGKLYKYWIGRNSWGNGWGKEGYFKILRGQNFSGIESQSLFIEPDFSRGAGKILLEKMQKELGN

Compound | % Inhibition @ 10 uM
CC(C)Oc1ccc(CNC(=O)CCCn2ncn3c(cc4occc43)c2=O)cc1 | -3.79%
O=C1NCC2=C1C(c1ccccc1)Nc1ccccc1N2 (centres unmarked) | 3.18%
COc1ccc2ccccc2c1C1C(C(C)=O)=C(C)N=c2s/c(=C\c3cc(C)[nH]c3C)c(=O)n21 (centres unmarked) | -4.49%
CC1=[N+]([O-])C(C)(C)CC(C)c2ccccc21 (centres unmarked) | 3.16%
Cc1nn(-c2ccccn2)c2c1C(O)=C(/C=N/c1cccc(C(F)(F)F)c1)CC2 | -1.98%
CC(=O)Nc1cccc(NC(=O)c2c(C(=O)O)cccc2[N+](=O)[O-])c1 | 4.81%
CC(=O)Nc1ccc(-c2cc3ccccn3c2)cc1 | -2.54%
COc1cc(C2CC(=O)Nc3c2ccc2ccccc32)cc(OC)c1O (centres unmarked) | 1.62%
COc1ccc(-c2cc3c(=O)n(CC(=O)NCc4ccccn4)ncn3n2)cc1 | 5.42%
Clc1ccc(Nc2nc(Cl)nc(N3CCOCC3)n2)nc1 | 5.01%
COc1ccc(C(=O)Cn2c3ccccc3n3nc(-c4ccco4)nc23)cc1 | 0.189%
CCCSCCCNC(=O)CS(=O)(=O)Cc1nc(-c2ccccc2C)oc1C | -0.138%
O=C(Cn1c(=O)n(Cc2ccccc2)c(=O)c2oc3ccccc3c21)NCCc1ccccc1 | 3.8%
O=C(CNC(=S)N(Cc1ccccc1)Cc1ccccc1F)NC1CCCC1 | 5.89%
CCCc1cc(O)n2nc(NCc3ccccc3OCC)nc2n1 | -2.4%
COc1ccc(CCNC(=O)c2cnn(-c3ccccc3)c2-n2cccc2)cc1OC | 0.137%
CCCCC(=O)Nc1sc2c(c1C#N)CCC(CC)C2 (centres unmarked) | -2.8%
CCCC(=O)Nc1ccc(N(CC)CC)cc1C | 6.18%
c1ccc(-c2nnn3c2nc(NCCc2c[nH]c4ccccc24)c2ccccc23)cc1 | -1.21%
CCCOc1ccc(/C=N/OC(=O)c2ccc(C)cc2)cc1 | -5.36%
CCn1c(C(=O)O)c(CNCc2ccc(OC)cc2)c2ccc(C)cc21 | -3.56%
CCN(CC)S(=O)(=O)c1nnc(NC(=O)c2ccco2)s1 | -5.37%
COc1ccc(CCN2C(=S)NC3c4cccc(OC)c4OC2(C)C3C(=O)N(C)C)cc1OC (centres unmarked) | -4.01%
CS(=O)(=O)/N=C/N[C@@H](CSCc1ccccc1OC(F)F)C(=O)NCC#N | -1.5%
CC1=CCC2(CC1)COC(C)(CC1=NCCN1)OC2 (centres unmarked) | -5.47%
COc1ccc(C2C(C#N)=C(N)Nc3onc(C(C)(C)C)c32)c(OC)c1 (centres unmarked) | 0.76%

Compound | % Inhibition @ 10 uM
Cc1cc(C)c2c(C)nn(-c3ccc([N+](=O)[O-])cc3)c2n1 | -3.93%
Cc1cc2c(c(=O)o1)C(c1cccc3ccccc13)C(C#N)=C(N)O2 (centres unmarked) | -6.82%
COc1ccccc1C(=O)Nc1ccccc1O | -1.42%
N#C/C(=C\c1ccc([N+](=O)[O-])cc1)c1nc(-c2ccc([N+](=O)[O-])cc2)cs1 | -2%
Cc1ccc(Cl)cc1-n1nnc(-c2nsc(NC(=O)c3ccccc3)n2)c1C | -0.836%
Cc1nnc(-c2ccccc2)c(O)n1 | -1.05%
COc1ccc(CCNC(=O)c2nnn(Cc3ccc(SC)cc3)c2N)cc1OC | -2.25%
COc1ccc(-n2nnc(-c3nsc(NC(=O)c4cccs4)n3)c2C)cc1Cl | 3.29%
Cc1sc2ncnc(SCC(=O)c3ccc(F)cc3)c2c1C | -7.63%
O=C(Nc1ccc(-c2nc3ccccc3o2)cc1)c1ccccc1F | -4.21%
CCOc1ccc(CC(=O)Nc2ccc(NC(C)=O)cc2)cc1OCC | -1.61%
CC(O)CNc1nc2c(c(=O)n(C)c(=O)n2C)n1Cc1c(Cl)cccc1Cl (centres unmarked) | 0.279%
O=S(=O)(NCCC1=CCCCC1)c1ccc(-n2cccn2)cc1 | -1.43%
CC(NC(=O)c1ccc(-n2cnc3cccnc32)cc1)c1ccc2c(c1)OCCO2 (centres unmarked) | -0.416%
Cc1cccc(CCNC(=O)Cn2cnc3onc(-c4ccc(F)cc4)c3c2=O)c1 | -1.06%
COc1ccc(CN2CCN(Cc3ccccc3C)CC2)c(OC)c1 | -2.74%
CC1=C(C(=O)NCCCSC2CCCCC2)C2(CCCCC2)OC1=O | -3.7%
COC(=O)c1ccc(-c2ccco2)n1Cc1ccccc1 | 1.63%
CC(=O)Nc1ccc(-c2ccc(NC(C)=O)c(Cl)c2)cc1Cl | -1.74%
C1CCN(C2CCN(C3CC4CCC3C4)CC2)CC1 (centres unmarked) | -1.44%
c1ccc(-c2nc3c4ccccc4nc(NC4CCCCC4)n3n2)cc1 | 5.68%
CCC(C)NC(=O)CCc1c(C)nc2cc(-c3ccc(Cl)cc3)nn2c1C (centres unmarked) | 2.93%
COc1ccc(C2CC(=O)C3=C(C2)NC(=O)CC3c2cccc(Cl)c2)cc1 (centres unmarked) | 0.8%
CCC1CN(C)CCC1(O)c1ccccc1 (centres unmarked) | -11.6%
CCOC(=O)C1=CN(C)C=C(C(=O)OCC)C1c1ccc(O)cc1 | -1.48%
Cc1cc(C)n(-c2nnc(-c3ccccc3)c(-c3ccccc3)n2)n1 | -1.33%

Compound | % Inhibition @ 10 uM
CC(C)N1C(=O)CCC1C(=O)NCc1ccccc1Cl (centres unmarked) | 3.66%
O=C(COc1cccc2cccnc12)N1CCc2ccccc2C1 | -1.81%
CCOC(=O)N1CCN(Cc2ccc3ccccc3c2)CC1 | 1.62%
CC(C)C[C@H](NC(=O)c1cc2c(s1)-c1ccccc1CC2)C(=O)NCC#N | -1.82%
CCOC(=O)C1CCCCN1Cc1ccc(OCc2ccccc2)c(OC)c1 (centres unmarked) | 0.265%
CCOC(=O)c1c(C)c(C(=O)NCc2cccnc2)c(C)n1C | -1.66%
CCCCN(C)Cc1c(C)n(C)n(-c2ccccc2)c1=O | -2.02%
CC(C)OCCCn1c(=O)c(C#N)cc2c(=O)n3ccccc3nc21 | 0.913%
CC1(C)Cc2c(c(N3CCOCC3)nc3sc4c(NCC5CCCO5)ncnc4c23)CO1 (centres unmarked) | 4.67%
CC(=O)CCc1c(S)nc2c(C)cccc2c1C | 1.4%
O=C(c1cnn(-c2ccccc2)c1-n1cccc1)N1CCC(N2CCCCC2)CC1 | 1.8%
CCn1c(SCC(=O)c2ccc(Cl)cc2)nc2c1c(=O)n(C)c(=O)n2C | 3.91%
Cc1ccc2cc(C3CC(c4ccco4)=NN3S(C)(=O)=O)c(Cl)nc2c1 (centres unmarked) | -0.587%
Cc1nn(C)cc1CNC(=O)c1cc2n(n1)C(C(F)(F)F)CC(c1cccs1)N2 (centres unmarked) | 6.52%
Cc1scc(CN(C)Cc2ccccc2)c1C | -3.91%
COc1ccc(C(=O)N(Cc2ccco2)Cc2ccco2)cc1Cl | -2.84%
CC(C)N1C(=O)CCC1C(=O)N1CCC2(CC1)OCCO2 (centres unmarked) | 2.05%
CC1CCC(NC(C)CCCC(C)(C)O)CC1 (centres unmarked) | 1.43%
O=C(c1ccc2nc(N3CCCCC3)sc2c1)N1CCN(Cc2ccc3c(c2)OCO3)CC1 | -0.637%
CCc1nc2ccccc2c(C(=O)NCc2ccccc2)c1C | 5.73%
Cc1ccc(NS(=O)(=O)c2ccc(NS(=O)(=O)c3ccc4c(c3)OCCO4)cc2)cc1C | -3.58%
O=C(O)/C=C/C(=O)Nc1ccc(-c2ccc([N+](=O)[O-])cc2)cc1 | 2.13%
COc1ccccc1N(C)S(=O)(=O)c1ccc(Cl)cc1 | -3.38%
O=C(NC1CCCC1)c1ccc2nc3[nH]c4ccccc4c3nc2c1 | -3.94%
CC(C)C(=O)n1nc(-c2cccnc2)nc1NCc1cccs1 | 2.21%
Cc1cc(-c2ccc(NC(=O)c3ccoc3C)c(C)c2)ccc1NC(=O)c1ccoc1C | 0.235%

Compound | % Inhibition @ 10 uM
COC(=O)c1ccc(-c2ccco2)n1CC(=O)NCCc1ccc(Cl)cc1 | -2.88%
O=C(Nc1cccc(S(=O)(=O)N2CCOCC2)c1)c1ccc(Cl)cc1Cl | 14.7%
Cc1nc2c(c(C)nn2-c2ccccc2)c(C)c1CCC(=O)NCCN1CCOCC1 | -2.45%
Cc1cccc(NC(=O)Cn2ncc3c2-c2ccccc2OC3)n1 | -0.154%
CCn1ncc(C2=NOC(C(=O)Nc3c(C)nn(Cc4ccc(F)cc4)c3C)C2)c1C (centres unmarked) | -3.08%
Cc1cc(C)nc(SCCN(C)C)n1 | -1.22%
O=C(NC1(C(F)(F)F)C(=O)Nc2c1c(=O)[nH]c(=O)n2-c1ccc(Cl)cc1)c1cccc(Cl)c1 (centres unmarked) | -0.173%
CCc1nnc(NC(=O)Cc2coc3cc(C)cc(C)c23)s1 | -6.04%
Cc1ccccc1-c1noc(CCC(=O)NC(C)C)n1 | 0.366%
Cc1cccc(NC(=O)C(C)Oc2ccccc2)c1C (centres unmarked) | 3.91%
COc1cc2c(cc1OC)C(C)=NC(C)(C)C2 | 2.22% and 1.83%
CN1C(=O)C(C(=O)Nc2ccccc2)c2ccccc21 (centres unmarked) | 26.3%
CC(C)CCSc1nc2c(c(=O)[nH]c(=O)n2C)n1CCc1ccccc1 | -7.75%
CCCCCCNC(=O)c1cnn2c(C)c(Cc3ccccc3C)c(C)nc12 | 2.9%
CCNC(=O)C1CCN(S(=O)(=O)c2ccc(Cl)cc2)CC1 | -0.68%
CC(Cc1ccccc1F)NCC1CCCO1 (centres unmarked) | -8.75%
CC(=O)N1CCN(c2ccc(NCc3ccc(C(C)C)cc3)cc2)CC1 | 3.89%
O=C(COc1ccc(Cl)cc1Cl)Nc1ccccc1Br | 2.47%
CCC(Cc1ccccc1)NC(=O)CCNS(=O)(=O)c1cc(Br)cnc1N (centres unmarked) | -7.32%
O=C1/C(=C/c2ccco2)CCC1C1CCCC1 (centres unmarked) | 13.3%
COc1cc(OC)c(OC)cc1CN1CCN(Cc2cc(OC)c(OC)cc2Br)CC1 | 8.36%
O=C(CCCCCN1C(=O)c2ccccc2C1=O)NC1CCCC1 | 5.7%
COc1cccc(OCC(O)CN2CCN(C)CC2)c1 (centres unmarked) | -3.49%
